Experimental data from publication PMC4468025 (Biochemical pharmacology, 2015).

How the values were obtained:
[1] = system: CHO DG44, HT1080 and RAW267.7 cells; test: Cytotoxicity, cell line not specified / variety of cell lines; format: cell-based
CHO DG44 cells = test: Cytotoxicity assay; format: cell-based, Chinese hamster; details: 24 h
HT1080 cells = test: Cytotoxicity in HT1080 cells; format: cell-based, human; details: 100 µM, data not shown
cells = details: cited from earlier work

Compound: N=C(N)Nc1ccc(O[C@@H]2CCC[C@H](Oc3ccc(NC(=N)N)cc3)C2)cc1 [2b, cis-1,3-bis(4-guanidinophenoxy)cyclohexane]
- cell toxicity (in words) ([1]; […]): toxic at high doses
- cytotoxicity in CHO cells (in words) (CHO DG44 cells; 100 µM): slight or modest cell toxicity

Compound: N=C(N)Nc1ccc(OC2CC(Oc3ccc(NC(=N)N)cc3NC(=N)N)C(NC(=N)N)CC2NC(=N)N)cc1 (stereo not drawn) [compound 1b, 1,1'-(4-((2,4-diguanidino-5-(4-guanidinophenoxy)cyclohexyl)oxy)-1,3-phenylene)diguanidine]
- cell toxicity (in words) ([1]; 10 µM, a variety of cell lines): none of which displayed significant cell toxicity
- cytotoxicity in CHO cells (in words) (CHO DG44 cells; 100 µM): negligible toxicity
- cytotoxicity in HT1080 cells (in words) (HT1080 cells): negligible toxicity

Compound: N=C(N)Nc1ccc(OC2CC(Oc3ccc(NC(=N)N)cc3)C(NC(=N)N)CC2NC(=N)N)cc1 (stereo not drawn) [compound 1g, 1,1'-(4,6-bis(4-guanidinophenoxy)cyclohexane-1,3-diyl)diguanidine]
- cell toxicity (in words) ([1]; 10 µM, a variety of cell lines): none of which displayed significant cell toxicity
- cytotoxicity in CHO cells (in words) (CHO DG44 cells; 100 µM): negligible toxicity
- cytotoxicity in HT1080 cells (in words) (HT1080 cells): negligible toxicity

Compound: N=C(N)Nc1ccc(OCCCOc2ccc(NC(=N)N)cc2)cc1 [compound 2a, 1,3-bis(4-guanidinophenoxy)propane]
- cell toxicity (in words) ([1]; […]): toxic at high doses
- cytotoxicity in CHO cells (in words) (CHO DG44 cells; 100 µM): slight or modest cell toxicity

Compound: N=C(N)Nc1ccc(Oc2cccc(Oc3ccc(NC(=N)N)cc3)c2)cc1 [compound 2c, 1,3-bis(4-guanidinophenoxy)benzene]
- cell toxicity (in words) ([1]; […]): toxic at high doses
- cytotoxicity in CHO cells (in words) (CHO DG44 cells; 10 µM): slightly toxic
- cytotoxicity in CHO cells (in words) (CHO DG44 cells; 100 µM): highly toxic
- cytotoxicity in HT1080 cells (in words) (HT1080 cells): not viable

Compound: N=C(N)Nc1ccc(Oc2cccc(Oc3ccc(NC(=N)N)cc3NC(=N)N)c2)c(NC(=N)N)c1 [compound 2f, 1,3-bis(2,4-diguanidinophenoxy)benzene]
- cell toxicity (in words) ([1]; 10 µM, a variety of cell lines): none of which displayed significant cell toxicity
- cell toxicity (in words) ([1]; […]): low cell toxicity
- cytotoxicity in CHO cells (in words) (CHO DG44 cells; 100 µM): slight or modest cell toxicity

Compound: dec-RVKR-CMK
- cell toxicity (in words) (cells): significant cell toxicity
